This is an account of results in the supplement of paper PMC3334620.

Whole data set: some 33,000 sequences, median “E-score (-0.5 to 0.5)” near -0.035, cut for the highest 2% near 0.35. This is one part of the list.

The target of this assay is T1, Pdr3 (UniProt P33200).
T1 sequence: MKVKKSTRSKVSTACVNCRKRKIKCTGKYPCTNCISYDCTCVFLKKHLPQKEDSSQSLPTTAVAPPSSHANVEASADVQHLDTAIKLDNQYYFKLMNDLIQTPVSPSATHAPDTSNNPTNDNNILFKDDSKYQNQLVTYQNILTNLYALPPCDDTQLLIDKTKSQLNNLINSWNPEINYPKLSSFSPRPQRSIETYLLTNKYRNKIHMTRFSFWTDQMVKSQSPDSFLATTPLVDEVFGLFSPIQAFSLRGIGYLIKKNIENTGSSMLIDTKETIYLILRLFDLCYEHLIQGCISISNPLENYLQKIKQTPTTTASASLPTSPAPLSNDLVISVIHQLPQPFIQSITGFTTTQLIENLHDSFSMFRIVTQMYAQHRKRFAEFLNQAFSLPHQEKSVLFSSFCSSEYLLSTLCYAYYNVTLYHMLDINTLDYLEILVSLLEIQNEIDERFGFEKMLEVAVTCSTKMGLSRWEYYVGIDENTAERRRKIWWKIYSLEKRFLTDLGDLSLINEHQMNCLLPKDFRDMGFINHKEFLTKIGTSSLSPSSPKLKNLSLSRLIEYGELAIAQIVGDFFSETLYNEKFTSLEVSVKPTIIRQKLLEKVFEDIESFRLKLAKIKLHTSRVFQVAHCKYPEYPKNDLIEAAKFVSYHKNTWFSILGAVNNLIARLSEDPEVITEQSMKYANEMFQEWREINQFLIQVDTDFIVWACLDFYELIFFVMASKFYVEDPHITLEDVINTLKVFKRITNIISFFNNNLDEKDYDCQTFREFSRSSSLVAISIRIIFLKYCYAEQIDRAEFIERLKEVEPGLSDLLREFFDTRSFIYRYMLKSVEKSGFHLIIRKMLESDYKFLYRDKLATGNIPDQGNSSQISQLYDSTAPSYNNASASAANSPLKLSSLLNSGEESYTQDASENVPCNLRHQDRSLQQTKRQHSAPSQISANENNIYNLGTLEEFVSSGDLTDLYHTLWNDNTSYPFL
In words: PBM E-score (8-mer binding enrichment) (E-score (-0.5 to 0.5)); higher = stronger / more preferred TF binding; most listed sequences are background and not binding sites. Conditions: protein concentration: 200 nM; construct: GST-full length. The procedure, abridged:
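GST-tagged yeast TFs (full-length or DNA-binding domain) were made by PURExpress in vitro transcription/translation and applied at about 100-200 nM to universal all-10-mer Agilent arrays. The arrays were made double-stranded by primer extension, on fresh or once-stripped slides. Bound protein was detected with fluorescent anti-GST, and scans were normalised with masliner. Each ungapped eight-base word, pooled with its reverse complement, received an E-score (modified Wilcoxon-Mann-Whitney statistic) from the Universal PBM Analysis Suite.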
Turning to ATGCGCGC, the “PBM E-score” value stood at 0.275.

For ACGGTTGC, the “PBM E-score” value was -0.0793.

As for AAGGGGCC, the “PBM E-score” value is -0.00267.

On to CTGGCCAA, for which the “PBM E-score” value worked out at 0.0275.

Consider CGGCTATC, for which the “PBM E-score” value worked out at 0.151.

Turning to CACATTCC, the “PBM E-score” value amounted to 0.16.

For the sequence CCCATAGG, the “PBM E-score” value was -0.0362.

Turning to GTATCAAA, the “PBM E-score” value was -0.107.

CCTTGGCA: the “PBM E-score” value is -0.198.

As to ATTCCCGC, the “PBM E-score” value came out at 0.348.

As for CCCGCTGA, the “PBM E-score” value was determined as 0.119.

Turning to AGGAGCCG, the “PBM E-score” value is 0.0342.

As for CCCTATTC, the “PBM E-score” value was found to be 0.106.

For AGAGAACA, the “PBM E-score” value is -0.0756.

Consider ACATAGCC, for which the “PBM E-score” value stood at 0.16.

Turning to AACTATTC, the “PBM E-score” value came out at 0.126.

Consider ACTCCACC, for which the “PBM E-score” value was -0.0705.

Consider GGTGGTCA, for which the “PBM E-score” value was determined as 0.0287.

TGTGGAAA: the “PBM E-score” value stood at 0.0299.

Turning to ATCTTTTC, the “PBM E-score” value is -0.0261.

For the sequence AGGCAGAG, the “PBM E-score” value was -0.287.

On to AGAACAAT, for which the “PBM E-score” value worked out at 0.0944.

As to CGTATAGC, the “PBM E-score” value came out at 0.079.

Turning to ATTGGGAG, the “PBM E-score” value is -0.086.

On to ACCAAAGA, for which the “PBM E-score” value worked out at 0.06.

Consider TAGCAATA, for which the “PBM E-score” value was -0.115.

As for CACTACTC, the “PBM E-score” value is 0.0868.

With CCAACACC, the “PBM E-score” value was -0.0533.

For AAAGTGTG, the “PBM E-score” value is -0.141.

As to AAAACTCC, the “PBM E-score” value is -0.0074.

Regarding GTCGTAAA, the “PBM E-score” value is -0.0422.

Take CCAAATGA: the “PBM E-score” value is -0.00462.

For AGCTGGGC, the “PBM E-score” value was -0.236.

Take GCAGTCAA: the “PBM E-score” value is -0.235.

As for CGAACGCC, the “PBM E-score” value was 0.0472.

As for AGCGGAAT, the “PBM E-score” value is 0.392.

Turning to GATCATTA, the “PBM E-score” value was -0.0398.

In the case of ACACGGTC, the “PBM E-score” value came to 0.0432.

As for AGTTACAG, the “PBM E-score” value is -0.111.

As to CACGATAG, the “PBM E-score” value is -0.0914.

For the sequence AATATTTA, the “PBM E-score” value came out at 0.103.

For ATGCACTG, the “PBM E-score” value was -0.059.

On to AAATTCGA, for which the “PBM E-score” value is -0.2.

Take GGCATTGA: the “PBM E-score” value is 0.0887.

Regarding AGATCGAC, the “PBM E-score” value is -0.076.

Regarding TCCACACA, the “PBM E-score” value is -0.0475.

CTAAAAAG: the “PBM E-score” value is -0.272.

For CAGTGTCG, the “PBM E-score” value is -0.177.

Consider GCCAAGGC, for which the “PBM E-score” value was -0.11.

Take ACCGTATA: the “PBM E-score” value was -0.214.

Turning to AGACGGAT, the “PBM E-score” value came out at 0.249.

As to ATAGAAAA, the “PBM E-score” value was -0.14.

On to AAGCCGCT, for which the “PBM E-score” value amounted to 0.088.

Take CAGAGGCA: the “PBM E-score” value was -0.133.

As to CGAATTCG, the “PBM E-score” value turned out to be 0.166.

For GAACGCGA, the “PBM E-score” value worked out at 0.121.

Consider AGAGCAGA, for which the “PBM E-score” value is -0.178.

Consider ATATGTAC, for which the “PBM E-score” value was -0.00303.

With CGCGCACC, the “PBM E-score” value is 0.0766.

As to CCTGAATA, the “PBM E-score” value was -0.0245.

For the sequence CACACAGC, the “PBM E-score” value is -0.0259.

In the case of AATATTGC, the “PBM E-score” value is 0.118.

Regarding AATGACGA, the “PBM E-score” value is -0.207.

For the sequence CCTTGTCA, the “PBM E-score” value is -0.212.

As to AGCGCTCA, the “PBM E-score” value is -0.127.

Regarding AAATGTGA, the “PBM E-score” value was -0.173.

With AGATACTG, the “PBM E-score” value was -0.0657.

Regarding ACTCTCAC, the “PBM E-score” value is -0.00506.

CATAATAA: the “PBM E-score” value is -0.109.

In the case of AATTGCGT, the “PBM E-score” value worked out at 0.139.

As for CCGTGCAG, the “PBM E-score” value worked out at 0.202.

Regarding GACTACTC, the “PBM E-score” value was found to be 0.115.

In the case of ATCTTGCA, the “PBM E-score” value amounted to 0.116.

On to CCGGACAC, for which the “PBM E-score” value was determined as 0.366.

GAAGCACC: the “PBM E-score” value is -0.108.

Take CGTCCAGA: the “PBM E-score” value was -0.0748.

With GCATATCC, the “PBM E-score” value was -0.00296.

With ACGTGTAC, the “PBM E-score” value was -0.317.

Turning to CTCGCCGA, the “PBM E-score” value was 0.179.

Regarding AGTATAAT, the “PBM E-score” value amounted to 0.136.

Turning to ATCGGATC, the “PBM E-score” value is 0.301.

On to AGGCGTTA, for which the “PBM E-score” value was -0.171.

On to CAATCCAA, for which the “PBM E-score” value is -0.0633.

Consider CAAAGATA, for which the “PBM E-score” value is -0.0907.

As for TACTACCA, the “PBM E-score” value is -0.184.

Turning to TCGCGTCA, the “PBM E-score” value turned out to be 0.0486.
